PubChem BioAssay AID2147 (National Center for Advancing Translational Sciences (NCATS), 2009)
Screen size: about 230,000 compounds; about 3,600 (1.6%) were called active. Inconclusive results, whose numbers are uncertain, are shown with a selection of clear calls. The call rests on the fitted dose curve; in most records, active means well fitted inhibition curve with a large enough effect (not every such curve was filed as active); inconclusive means small, poorly fitted or top-dose-only effect, or another doubt; inactive means no such curve, though single readings can be large or run the other way. Potencies of inconclusive entries are doubtful fits and often do not repeat.

biological target: Lysine-specific demethylase 4E (Homo sapiens) (UniProt B2RXH2); assay: qHTS Assay for Inhibitors of Human Jumonji Domain Containing 2E (JMJD2E); conditions: JMJD2E catalytic domain, FDH-coupled NADH fluorescence (FDH is formaldehyde dehydrogenase); series mostly up to 57.1 µM; activity change, negative = inhibition: at the top concentration
Sequence of UniProt B2RXH2 (B2RXH2 whole entry, looked up, the tested form may be a part): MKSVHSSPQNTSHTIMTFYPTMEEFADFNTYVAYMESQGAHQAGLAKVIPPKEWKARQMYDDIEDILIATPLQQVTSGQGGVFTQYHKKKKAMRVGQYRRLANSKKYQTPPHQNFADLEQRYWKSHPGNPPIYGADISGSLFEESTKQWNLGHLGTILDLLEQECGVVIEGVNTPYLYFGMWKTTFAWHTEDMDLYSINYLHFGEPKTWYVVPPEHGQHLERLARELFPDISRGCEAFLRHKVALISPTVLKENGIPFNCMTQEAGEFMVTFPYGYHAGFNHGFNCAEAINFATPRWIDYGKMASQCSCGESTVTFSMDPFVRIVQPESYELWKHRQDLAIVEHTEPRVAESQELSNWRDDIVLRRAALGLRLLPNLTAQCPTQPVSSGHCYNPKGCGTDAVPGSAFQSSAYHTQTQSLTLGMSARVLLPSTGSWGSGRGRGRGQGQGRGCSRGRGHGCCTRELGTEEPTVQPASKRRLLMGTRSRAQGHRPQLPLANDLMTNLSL
Further: nearly all actives have a fitted effect of over 50% in size.
Potency means the concentration at half of the fitted maximal effect; tags describe the fitted curve by direction and shape.
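Wherever activity change, negative = inhibition is given: 0% = wells with enzyme and -100% = buffer wells without enzyme.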

SMILES | Potency | activity change, negative = inhibition
CC(C)/C=N/NC(=O)c1cc(Br)ccc1O | inconclusive: 35.5 µM [inhibitor, single point] | 
C/C(=N\NC(=O)Cc1cccn1C)c1ccco1 | inconclusive: 22.4 µM [inhibitor, partial curve] | 
O=C(Nc1nc(-c2cc(F)ccc2F)cs1)c1ccccn1 |  | inactive: 4.3%
Cc1nc(SCC(=O)Nc2ccc3c(c2)OCO3)c(C#N)c2c1CCCC2 |  | inactive: 4.15%
O=C(/C=C/c1cccs1)Nc1cccc(NC(=O)/C=C/c2cccs2)n1 | inconclusive: 35.5 µM [inhibitor, single point] | 
CSc1ccc(C#N)cc1NC(=O)c1cccnc1Cl |  | inactive: 6.1%
CCOc1ccc2nc(Cl)c(C3CC(c4ccco4)=NN3S(=O)(=O)c3ccccc3)cc2c1 (stereo not given) | inconclusive: 39.8 µM [inhibitor, single point] | 
N#Cc1c(NC(=O)c2cc(C3CC3)on2)sc2c1CCC2 |  | inactive: 3.12%
CCOC(=O)c1cc2n(c1N)-c1ccccc1C2=O | inconclusive: 35.5 µM [inhibitor, single point] | 
COc1ccc(OCCNc2c([N+](=O)[O-])c(=O)oc3ccccc23)cc1 |  | inactive: -3.19%
CC(C)(C)NC(=O)CSc1nc2ccc(Nc3nc(N4CCOCC4)nc(N4CCOCC4)n3)cc2s1 | inconclusive: 28.2 µM [inhibitor, single point] | 
CN(C=[N+](C)C)c1cccc2c1C(=O)c1ccccc1C2=O | inconclusive: 14.1 µM [inhibitor, partial curve] | 
Cc1ccc(-c2c3c(=O)n(C)c(=O)n(C)c3cn2Cc2ccccc2)cc1 | inconclusive: 22.4 µM [inhibitor, partial curve] | 
COc1ccc(Cl)cc1-n1c(C)cc(C=O)c1C |  | inactive: -8.79%
NC(=O)c1ccccc1N/C=C/C(=O)c1ccc(F)cc1 | inconclusive: 1.26 µM [inhibitor, single point] | 
O=C(NCc1ccco1)c1ccc(-c2ccccc2Cl)o1 | inconclusive: 39.8 µM [inhibitor, single point] | 
CC/C(C)=N/Nc1nc2sc3c(c2c(=O)[nH]1)CC(C)(C)OC3 | inconclusive: 31.6 µM [inhibitor, partial curve] | 
Cc1csc(NC(=O)CSc2nc3ccccc3s2)n1 |  | inactive: -3.81%
Cc1cc(/C=C2/C(=N)N3C(=NC2=O)SN=C3S(C)(=O)=O)c(C)n1-c1ccccc1F | inconclusive: 39.8 µM [inhibitor, single point] | 
Cc1ccc(CNC(=O)C(=O)Nc2nccs2)cc1 | inconclusive: 31.6 µM [inhibitor, single point] | 
N#C/C(=C/c1ccc(N2CCCCC2)o1)C(=O)Nc1ccc2ccccc2c1 | active: 25.1 µM | 
COCCCN1CN(S(=O)(=O)c2ccc(Cl)cc2)c2nc3ccccc3nc21 | inconclusive: 28.2 µM [inhibitor, partial curve] | 
COC(=O)CCCC1=CC2=CC(=O)C(C)(OC(=O)c3cccs3)C(=O)C2=CN1c1ccccc1 (stereo not given) | inconclusive: 3.55 µM [inhibitor, single point] | 
N=c1c(C(=O)NC2CCCC2)cc2c(=O)n3ccccc3nc2n1CCN1CCOCC1 | inconclusive: 3.55 µM [inhibitor, full curve] | 
CCN(CC)C(=O)CSc1nc2cc3c(cc2c(=O)n1Cc1ccco1)OCO3 |  | inactive: -8.59%

SMILES | Potency | activity change, negative = inhibition
CO/N=C(/C(=O)NC1C(=O)N2C(C(=O)O)=C(CSc3nc(=O)c(O)nn3C)CSC12)c1csc(N)n1 (stereo not given) | inactive | 
CCOC(=O)c1c(O)cc(C)[nH]c1=O | inconclusive: 39.8 µM [inhibitor, single point] | 
CCCn1c(C)nc2c(NCCCN(CC)CC)nc(C)nc21 |  | inactive: 9.38%
COc1ccc(N2C(=O)CC(N3CCN(Cc4ccc5c(c4)OCO5)CC3)C2=O)cc1 (stereo not given) |  | inactive: -4.63%
COc1ccc(-c2nnc(Sc3nc4ccccc4o3)c3ccccc23)cc1 | inconclusive: 0.0056 µM [inhibitor, full curve, poor fit] | 
Cc1ccc(-n2nc3c(c2NC(=O)c2ccc(Br)o2)CSC3)c(C)c1 |  | inactive: -5.94%
O=C1CCCC(O)=C1N=Nc1c(Cl)cc(C(F)(F)F)cc1Cl | active: 25.1 µM | 
Cc1cc(C)c2nc(N3CCC(C(=O)NCc4cccnc4)CC3)sc2c1 |  | inactive: -14.3%
O=C(O)C1CC=CCC1C(=O)Nc1ccc(Oc2ccc(Cl)cc2)cc1 (stereo not given) |  | inactive: -11.8%
O=C(CCn1cnc2ccccc21)N/N=C/c1ccccc1O | inconclusive: 25.1 µM [inhibitor, partial curve] | 
COc1cccc(C(Nc2ccccn2)c2c(NC(=O)c3ccco3)sc(C)c2C)c1 (stereo not given) | inconclusive: 28.2 µM [inhibitor, partial curve] | 
CCc1ccc(C2NC(c3ccc(CC)cc3)C([N+](=O)[O-])C(C)(C)C2[N+](=O)[O-])cc1 (stereo not given) |  | inactive: -3.6%
CCOC(=O)c1cnc(-c2ccccc2)[nH]c1=O |  | inactive: -4.83%
CC(=O)Cc1nsc(NC(=O)c2ccc(-c3ccc(Cl)c(Cl)c3)o2)n1 | inconclusive: 28.2 µM [inhibitor, partial curve] | 
C=CCNC(=S)NNC(=O)CCC(O)CCCCC (stereo not given) |  | inactive: 9.56%
COc1ccc(NC(=O)c2ccc(-c3ccc(OC)cc3)s2)cc1 | inconclusive: 1.12 µM [inhibitor, single point] | 
CCC1=NN(C(=O)c2ccc(Br)cc2)C(O)(c2ccc(C)cc2)C1 (stereo not given) | inconclusive: 31.6 µM [inhibitor, single point] | 
N#Cc1cnn(-c2cccc(Cl)c2)c1N |  | inactive: 4.08%
O=C(O)/C=C/c1cn(Cc2ccccc2)nc1-c1cccs1 | inconclusive: 28.2 µM [inhibitor, partial curve] | 
COc1ccc(Nc2c(-c3ccc(C)cc3)nc3cnccn23)cc1 |  | inactive: -7.78%
COc1cccc(NC(=O)Cn2c(CCC(=O)O)ccc2-c2ccc(C)cc2)c1 | inconclusive: 39.8 µM [inhibitor, single point] | 
Brc1ccc(-c2nc(N/N=C/c3cccnc3)c3ccccc3n2)cc1 | inconclusive: 17.8 µM [inhibitor, partial curve] | 
CC1=C(C(=O)OCC(C)C)C2(O)C(=O)c3ccccc3C2(O)N1 (stereo not given) |  | inactive: 4.4%
O=C(CN1CCN(S(=O)(=O)c2ccc(Br)cc2)CC1)Nc1ccc2c(c1)OCCO2 |  | inactive: 8.2%
COCCNC(=S)N(CCc1c(C)[nH]c2ccc(C)cc12)Cc1ccco1 |  | inactive: 9.45%

SMILES | Potency | activity change, negative = inhibition
COCc1cc(C)nc(OCC(=O)N/N=C/c2ccco2)c1C#N | inconclusive: 28.2 µM [inhibitor, partial curve] | 
Cc1cc(CNC(=O)[C@H](C)[C@H]2C[C@]2(C)[C@H](NC(=O)OCc2ccccc2)c2ccccc2)nn1C |  | inactive: 0.509%
OC(COCc1ccccc1)CN1CCN(c2ccccc2)CC1 (stereo not given) |  | inactive: -18%
COc1cc(/C=C/C(=O)OCC(=O)NCc2ccco2)ccc1OCC#N | inconclusive: 31.6 µM [inhibitor, partial curve] | 
COc1ccccc1-n1nnnc1SCC(=O)Nc1ccccn1 |  | inactive: -5.23%
O=C(COC(=O)c1ccc([N+](=O)[O-])o1)Nc1nc2ccccc2s1 | inconclusive: 39.8 µM [inhibitor, single point] | 
Cn1cnnc1Sc1ccc(C(=O)NCCC23CC4CC(CC(C4)C2)C3)cc1[N+](=O)[O-] |  | inactive: -0.421%
COc1ccc(OC)c(-c2[nH]nc3c2C(c2ccco2)C(C#N)=C(N)O3)c1 (stereo not given) | inconclusive: 39.8 µM [inhibitor, single point] | 
O=C(O)c1ccccc1C(=O)NCCc1c(C(=O)O)[nH]c2ccc(F)cc12 | inconclusive: 39.8 µM [inhibitor, single point] | 
COc1ccc(/C=C\C(=O)NCC(=O)N/N=C/c2ccc(O)cc2O)cc1 | active: 7.08 µM | 
COc1ccc(N=C2SC(CC(=O)Nc3ccc(F)cc3)C(=O)N2Cc2ccco2)cc1 (stereo not given) |  | inactive: -5.76%
CCCCCCCCCC(=O)NC(CN1CCOCC1)[C@H](O)c1ccccc1 (stereo not given in full) |  | inactive: 4.39%
O=C(Nc1ccc2oc(-c3ccc(F)cc3)nc2c1)c1ccccc1F | inconclusive: 28.2 µM [inhibitor, partial curve] | 
CCC(=O)Nc1sc(Cc2ccccc2)c(C)c1C(N)=O | inconclusive: 39.8 µM [inhibitor, single point] | 
C/C(=N/NS(=O)(=O)c1ccc(C)cc1)c1c(O)c2ccccc2oc1=O |  | inactive: 2.24%
COc1cc(OC)c2c(-c3ccccc3)cc(=O)oc2c1C(CC(=O)N1CCN(c2ccccc2)CC1)c1ccc(N(C)C)cc1 (stereo not given) |  | inactive: -6.88%
Cc1[nH]n(-c2ccccc2)c(=O)c1/C=N\NC(=O)C1COc2ccccc2O1 (stereo not given) | inconclusive: 35.5 µM [inhibitor, single point] | 
O=[n+]1c2c(n([O-])c3cc(F)c(F)cc31)CCCC2 | inconclusive: 12.6 µM [inhibitor, partial curve, poor fit] | 
Cc1ccc(OCC(=O)N/N=C\c2cn(Cc3ccccc3)c3ccccc23)cc1C |  | inactive: 0.25%
COc1ccc(C2=CC(c3sccc3C)n3nnnc3N2)cc1 (stereo not given) | inconclusive: 35.5 µM [inhibitor, single point] | 
O=C(CSc1nnc(-c2ccc(O)cc2)n1Cc1ccco1)c1ccccc1 |  | inactive: 5.84%
COc1ccccc1-c1c(C#N)c(N)nc2c1CCC2 | inconclusive: 31.6 µM [inhibitor, partial curve] | 
NS(=O)(=O)c1ccc(NC(=O)/C=C/c2ccco2)cc1 | inconclusive: 35.5 µM [inhibitor, single point] | 
Cc1sc(NC(=O)C2C3C=CC(C3)C2C(=O)O)c(C(N)=O)c1-c1ccc(C(C)C)cc1 (stereo not given) |  | inactive: -4.35%
O=C(Nc1cccc(S(=O)(=O)NCc2ccco2)c1)c1cc(-c2ccc(F)cc2)nc2ccccc12 | inconclusive: 31.6 µM [inhibitor, partial curve] | 
